Test results from the supplement of paper PMC3334620.
Over roughly 33,000 sequences, “E-score (-0.5 to 0.5)” has its median near -0.04; the highest 2% begin near 0.36. This is one part of the list.

These sequences were tested against T1, Hmlalpha2 (UniProt P0CY09) (assay: PBM E-score (8-mer binding enrichment) (E-score (-0.5 to 0.5)); higher = stronger / more preferred TF binding; most listed sequences are background and not binding sites). Conditions: protein concentration: 200 nM; construct: GST-full length.
T1 sequence: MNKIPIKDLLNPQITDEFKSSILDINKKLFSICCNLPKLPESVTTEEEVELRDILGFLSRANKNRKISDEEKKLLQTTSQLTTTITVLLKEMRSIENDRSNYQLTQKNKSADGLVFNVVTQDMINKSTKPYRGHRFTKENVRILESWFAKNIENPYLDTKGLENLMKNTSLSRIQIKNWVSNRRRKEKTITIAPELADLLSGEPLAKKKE
Method in brief: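 Universal all-10-mer Agilent arrays, fresh or stripped once, were converted to double-stranded form by primer extension. GST-tagged yeast transcription factors from PURExpress in vitro transcription/translation, full-length or DNA-binding domain only, were applied at about 100-200 nM and detected with fluorescent anti-GST. After masliner normalisation, the Universal PBM Analysis Suite scored each ungapped eight-base word together with its reverse complement by E-score.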

| Sequence | PBM E-score |
| --- | --- |
| CTCACGCC | -0.223 |
| GTACAGAA | 0.0238 |
| GGTTAAAA | 0.28 |
| CTACTACC | -0.0161 |
| TGCCTTAA | -0.172 |
| ACACGTAA | 0.396 |
| AACCTAGG | -0.0475 |
| AAACGACG | 0.177 |
| GCCGGGAA | -0.328 |
| CAGCATCC | -0.176 |
| GATCCTGA | -0.176 |
| CCGAGGGC | -0.249 |
| TACCCCCA | -0.254 |
| CGTGCTGA | 0.105 |
| AGCCTTAC | -0.197 |
| CAAGATCC | -0.0141 |
| TCATAGCA | -0.0434 |
| GAGAACTA | 0.109 |
| CACCCAAG | -0.212 |
| CGGGGCAG | -0.22 |
| CCGACGAG | -0.0517 |
| CTGGAGGA | -0.281 |
| CTTGAATC | -0.0387 |

| Sequence | PBM E-score |
| --- | --- |
| CACGGCCA | -0.024 |
| CCTATGCC | -0.225 |
| TGCGGTAA | 0.188 |
| GCCAACAA | -0.0172 |
| GGAGGGGA | -0.289 |
| CCAGCAAG | -0.109 |
| ACCGGTCC | -0.424 |
| AAGTCGTG | 0.0647 |
| AGCAGACC | -0.0636 |
| CCTCTGTA | 0.111 |
| GACTAACA | 0.164 |
| GAGGTAGC | -0.223 |
| AATAGTGT | 0.0883 |
| ACAAAACG | 0.22 |
| CGGTCACA | -0.178 |
| AAGGCCTT | -0.124 |
| ATGCGACC | 0.0646 |
| CGACTACC | -0.197 |
| GCATCCAA | -0.18 |
| ATGGTTAA | 0.139 |
| CTTGTTAC | 0.274 |
| CATTCGGG | -0.162 |
| AGCAAGTG | -0.048 |

| Sequence | PBM E-score |
| --- | --- |
| CATGAAGG | 0.0817 |
| AATTTATA | 0.203 |
| GCGCGTCA | 0.0726 |
| CCGTCTCA | -0.136 |
| ACTAGCTC | 0.121 |
| ATTGGAGG | -0.299 |
| CCGTCGCA | -0.0478 |
| CAATACGG | -0.195 |
| ACGCGACT | 0.218 |
| ACGAGGAA | 0.0596 |
| GCGTGGTA | 0.0607 |
| GTAGGGGA | -0.222 |
| ATCACCTC | 0.0325 |
| GAATAAAC | 0.149 |
| AGCGTCCC | -0.0394 |
| ATGCCAAT | -0.00419 |
| CATCTTAG | 0.0694 |
| ATCGATAG | 0.106 |
| GTTTACCA | 0.21 |
| AAGCAGAG | -0.0565 |
| ACTCCTGC | -0.115 |
| GCAGACCA | -0.185 |
| ATCTCGGG | -0.157 |

| Sequence | PBM E-score |
| --- | --- |
| GCACTTTA | 0.0891 |
| ACGCGACA | 0.231 |
| GCAGAGAA | 0.0113 |
| GCCGGTCC | -0.423 |
| CGGCTCAC | -0.0995 |
| CGCGAGCC | -0.234 |
| CCGGGGAA | -0.0784 |
| AATGGAAA | -0.0212 |
| AAGGGCAT | -0.141 |
| AATCACAA | 0.066 |
| AGTCCGAT | -0.0997 |
| GTCTCAAC | -0.0177 |
| GATTATAA | 0.0937 |
| ACTGGTCA | 0.02 |
| ATTGAGAG | -0.0922 |
| AAAGGATA | -0.00272 |
| AGCGGTAC | 0.0292 |
| CAGTACAG | 0.0351 |
| GCCCAACA | 0.0958 |
| AATCCCCT | -0.25 |
| AATTAGTC | 0.137 |
| CAGGCTTC | -0.0702 |
| CCGAAGCC | -0.274 |

| Sequence | PBM E-score |
| --- | --- |
| CAGTGCGA | -0.104 |
| CCGGACTC | -0.0206 |
| AGCTGATG | 0.0229 |
| CAGTAGGG | -0.186 |
| GGCGCGGA | -0.23 |
| ATAGTCGG | -0.107 |
| AGTGTGAC | 0.0615 |
| ACGTCCCC | -0.0609 |
| ATCCTAGA | -0.104 |
| AGGGTACG | 0.0138 |
| ACAGTAGA | 0.176 |
| ACAAATAC | 0.3 |
| CGTCTCCA | -0.0468 |
| ATCGGGAC | -0.17 |
| AAGGGATC | -0.156 |
| ATCCCGTA | 0.118 |
| AGTCCAGA | -0.0435 |
| AGGAGCTA | -0.107 |
| CGGAGATA | -0.185 |
| CAGCACCG | -0.189 |
| CTGAAGAC | -0.23 |
| CCGAGTAA | 0.183 |
| ACGACTTA | -0.104 |

| Sequence | PBM E-score |
| --- | --- |
| GGTCACAC | -0.0337 |
| GACTGCAC | -0.153 |
| TAACCCGA | 0.0718 |
| TACTACGA | 0.17 |
| CCAGACAA | -0.138 |
| TAGGGTGA | -0.0617 |
| TCCTCTAA | -0.127 |
| CTACCCTA | -0.15 |
| GGCTCGTA | 0.147 |
| GGCATGCA | 0.128 |
| TCCGCCAA | -0.29 |
| CTCATTAC | 0.315 |
| GTTTACAA | 0.425 |
| ACGGCCTC | -0.274 |
| ACTTGCTG | 0.0428 |
| ATGGACCC | -0.176 |
| ATTATACG | 0.256 |
| AACCCTAC | -0.0838 |
| AGGCCAAG | -0.247 |
| CATGTGTA | 0.427 |
| AGGAGCAC | -0.18 |
| CGAATGCA | 0.145 |
| AACAGGGA | 0.0712 |

| Sequence | PBM E-score |
| --- | --- |
| CAGAGTGC | -0.135 |
| CCCACCCC | -0.238 |
| AGCCTCTA | -0.27 |
| ACATCTTG | 0.00807 |
| AATAAACG | 0.214 |
| AGATATTC | -0.109 |
| GATAATAC | 0.115 |
| ACGCAGGA | 0.115 |
| AATGTAAG | 0.294 |
| ATACATAT | 0.393 |
| AAGAGGGG | -0.322 |
| CCGCGTCG | 0.132 |
| GCTTTAAA | 0.095 |
| CATGCGCA | 0.187 |
| ACGCCCTG | -0.00258 |
| GCGCGGCC | -0.135 |
| TGGGGTAA | 0.00932 |
| AATGGGCT | -0.0382 |
| AACCGGAA | -0.215 |
| CCGACGCA | -0.14 |
| ACCCAATA | -0.129 |
| AGCGCTGC | 0.0316 |
| ATAACATG | 0.452 |
